Data as given in the supplement of paper PMC11876631.
Changes are numbered by the printed parent chain. Names may count otherwise. ± gives the standard deviation of the averaged measurements. Laboratory Escherichia coli strains with one amino-acid change in an essential protein, pooled on minimal glucose agar with carbenicillin or gentamicin at twice the control MIC (plus kanamycin and chloramphenicol for the plasmids), 48 h. Fold change of barcode share against drug-free plates; higher = less susceptible. Active = above 20 in both replicates (the paper's putatively resistant). '<' = one read or none on drug, '>' = one read or none on a drug-free plate. Shares are relative, so most strains fall below 1 when a few take over. Listed are strains with at least 15 reads on both drug-free plates, and hits; most hits rest on fewer reference reads. Replicate rank correlation about 0.5. Edits are read from barcodes.

B1: nrdA V289A (protein)
chain: MNQNLLVTKRDGSTERINLDKIHRVLDWAAEGLHNVSISQVELRSHIQFYDGIKTSDIHETIIKAAADLISRDAPDYQYLAARLAIFHLRKKAYGQFEPPALYDHVVKMVEMGKYDNHLLEDYTEEEFKQMDTFIDHDRDMTFSYAAVKQLEGKYLVQNRVTGEIYESAQFLYILVAACLFSNYPRETRLQYVKRFYDAVSTFKISLPTPIMSGVRTPTRQFSSCVLIECGDSLDSINATSSAIVKYVSQRAGIGINAGRIRALGSPIRGGEAFHTGCIPFYKHFQTAAKSCSQGGVRGGAATLFYPMWHLEVESLLVLKNNRGVEGNRVRHMDYGVQINKLMYTRLLKGEDITLFSPSDVPGLYDAFFADQEEFERLYTKYEKDDSIRKQRVKAVELFSLMMQERASTGRIYIQNVDHCNTHSPFDPAIAPVRQSNLCLEIALPTKPLNDVNDENGEIALCTLSAFNLGAINNLDELEELAILAVRALDALLDYQDYPIPAAKRGAMGRRTLGIGVINFAYYLAKHGKRYSDGSANNLTHKTFEAIQYYLLKASNELAKEQGACPWFNETTYAKGILPIDTYKKDLDTIANEPLHYDWEALRESIKTHGLRNSTLSALMPSETSSQISNATNGIEPPRGYVSIKASKDGILRQVVPDYEHLHDAYELLWEMPGNDGYLQLVGIMQKFIDQSISANTNYDPSRFPSGKVPMQQLLKDLLTAYKFGVKTLYYQNTRDGAEDAQDDLVPSIQDDGCESGACKI
B2: nrdA L26D (protein)
chain: B1 chain with L26D, A289V
B3: nrdA L26A (protein)
chain: B1 chain with L26A, A289V
B4: nrdA L26W (protein)
chain: B1 chain with L26W, A289V
B5: nrdA V226A (protein)
chain: B1 chain with V226A, A289V
B6: nrdA V289Q (protein)
chain: B1 chain with A289Q
B7: nrdA V226Q (protein)
chain: B1 chain with V226Q, A289V
B8: nadE L196Q (protein)
chain: MTLQQQIIKALGAKPQINAEEEIRRSVDFLKSYLQTYPFIKSLVLGISGGQDSTLAGKLCQMAINELRLETGNESLQFIAVRLPYGVQADEQDCQDAIAFIQPDRVLTVNIKGAVLASEQALREAGIELSDFVRGNEKARERMKAQYSIAGMTSGVVVGTDHAAEAITGFFTKYGDGGTDINPLYRLNKRQGKQLQAALACPEHLYKKAPTADLEDDRPSLPDEVALGVTYDNIDDYLEGKNVPQQVARTIENWYLKTEHKRRPPITVFDDFWKK

Target: Escherichia coli (laboratory strain)
Assay: barcode share on antibiotic plates over drug-free plates; higher = less susceptible
Description: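 A pool of E. coli strains, each edited to carry one amino-acid change in an essential protein, was grown for 48 h on minimal glucose agar with or without antibiotic; strain barcodes were sequenced; mean of two replicates.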

[1] = antibiotic: carbenicillin, 2× MIC (3.1 µg/mL)
[2] = antibiotic: gentamicin, 2× MIC (MIC 0.45 µg/mL)

Protein	fold change of barcode share [1]	fold change of barcode share [2]
B1	0.156 ± 0.14	< 0.0136
B2	0.481 ± 0.45	–
B3	0.223 ± 0.14	< 0.0121
B4	0.158 ± 0.078	–
B5	1.23 ± 0.33	< 0.00278
B6	0.108 ± 0.082	< 0.0163
B7	0.126 ± 0.013	< 0.00354
B8	0.214 ± 0.14	–
